According to the supplement of paper PMC3334620:
In all, about 33,000 sequences were measured (“E-score (-0.5 to 0.5)”: median about -0.056, highest 2% from about 0.38 on). The list shows a part of the results.

biological target: Stb4 (UniProt P50104); assay: PBM E-score (8-mer binding enrichment) (E-score (-0.5 to 0.5)); higher = stronger / more preferred TF binding; most listed sequences are background and not binding sites; conditions: protein concentration: 200 nM; construct: GST-DNA-binding domain
Summary of the method: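 Bound GST-tagged yeast transcription factors, applied at about 100-200 nM to double-stranded universal all-10-mer Agilent arrays, were detected with fluorescent anti-GST. Scans were normalised with masliner. A modified Wilcoxon-Mann-Whitney statistic, the E-score, was assigned to each ungapped eight-base word pooled with its reverse complement by the Universal PBM Analysis Suite.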

Sequence | PBM E-score
CTCGATAA | 0.0444
AAAAGAAC | -0.0657
AGACACAT | -0.212
CCCCGTCG | 0.0478
ACATTTGG | -0.0128
GTAGCTGA | -0.195
CGAAGGTA | 0.0861
GCACAGAC | -0.0125
ATAAAGGA | -0.15
GACCTGTA | -0.0511
CCAATAAA | -0.11
AGTAGCGA | -0.293
AGTCCGGA | 0.332
GGAAGCTA | 0.3
CTGGTTGA | -0.237
CACCACGA | -0.167
AGACACAG | -0.089
ACGGCATG | 0.0075
CAGTATGA | -0.185
CGGTATGC | 0.0919
AAAATAAT | -0.0309
GCCCGCCC | 0.107
CACAGTAA | -0.243
GTTAACCA | 0.0012
GAAAGTGC | -0.0189

Sequence | PBM E-score
GCTGAGCA | -0.123
GAGCGACA | -0.201
CTTTAAGA | 0.0633
ACGCAGAC | -0.181
ATGGGTGG | -0.0789
ACCGTTCA | 0.0153
ATGTGACG | -0.15
GTGCAAGA | -0.0626
ATTATTCC | 0.25
ACTCACAT | -0.312
AAGGACTG | -0.22
GCCCTAAC | 0.0868
GTTCCCGA | 0.419
CTCATGGC | -0.0117
TAGCTATA | -0.0836
AACCGCAA | 0.0842
CCAAAGCC | -0.0887
CCGTCTAG | 0.161
ACACAGTC | -0.138
GTCTCTAA | -0.126
ACTACATA | -0.242
CTGATGCC | -0.0385
CTAATCAC | 0.00419
CTTTCTCC | 0.0408
ATTGGACC | 0.104

Sequence | PBM E-score
ACGTGCGA | -0.198
CTCACCAA | -0.133
ATGGAATC | -0.0161
GCTGGCAC | -0.224
CAGCACCC | 0.0352
ATCAAGAG | -0.113
ATTTGTCC | 0.112
ACCACAGG | -0.177
ATCCCGCC | 0.232
ATCCTTAG | -0.0109
ATCTCACG | -0.0385
AGATAGAT | -0.187
GGCTATAA | 0.104
GCAACAGA | 0.00771
AACCTCAT | -0.122
ATGAATGG | -0.0556
AGGCTCAA | -0.202
ACGCGTAA | -0.121
CGCAATTC | 0.084
CAAAGCGC | 0.0796
ACACGGCG | 0.0269
CGGACCAG | 0.108
ACCCGGAT | 0.374
CATTGATC | -0.0448
ATGTATAC | -0.078

Sequence | PBM E-score
CGGGCCTA | 0.156
GACGAGCC | -0.0685
GAACTTTA | 0.154
CGGCCACA | 0.0589
ACGACCCA | -0.168
GCATGCTA | -0.0194
GTATACGA | 0.00578
AATGAACA | -0.147
CATCCGGG | 0.397
TTAAACAA | -0.263
CAAAAGGC | -0.0435
GGCACGCC | -0.0433
CATTTTCC | 0.0537
ACCACCTC | 0.177
TGGCCAAA | -0.175
CCCTACAA | -0.218
GGAGGGTA | 0.0433
CGCCAGTA | -0.199
CAGTTTCC | 0.197
GATTCGCC | -0.0248
GATCGTAC | 0.108
AAGGTCCG | 0.217
ACATCTCT | -0.243
CTAGCTTC | 0.122
AACATTTG | -0.0816

Sequence | PBM E-score
GGCAAAAA | 0.233
AAAACGCG | 0.0778
AGTCGTCA | -0.192
AGTAAGTC | -0.0385
CCAATCTA | 0.0537
AATCCCGC | 0.225
GCCTGACA | -0.111
CTATCTAC | -0.0208
TACCAACA | -0.169
TCTGTGCA | -0.163
TGGAGAAA | -0.15
ACCGGAGC | 0.244
CGGCATCC | 0.301
AAGCAGGT | -0.046
CAACCTCG | 0.19
CGAATACG | 0.146
CTGTAAAC | -0.205
CGTATACC | -0.086
TAGAGGGA | -0.272
ACGCCACA | -0.00364
CTTCCCTC | -0.117
ACCTCCCT | -0.111
ACTAAGAC | -0.125
GTTCGCGA | 0.0211
CTCGTCAA | -0.214

Sequence | PBM E-score
CTGTCCCA | -0.234
GAGCCGCC | 0.229
AGTTATAC | 0.0159
ACCGAGAC | 0.357
GGTCAACC | 0.0687
CCTCAGCC | -0.238
GAATCGTA | -0.0747
AGCTTTAA | -0.17
GAGAGCAA | -0.0902
AGATTACA | 0.033
GCTAAACC | 0.121
TCGTATAA | 0.0332
CCAAAGAG | -0.0937
AATTTTGG | -0.0161
AAATAACC | 0.127
GAGGTGAA | -0.125
CCCACATC | 0.023
CAACCGTG | -0.0932
ACGAGTAC | -0.106
ATACGCCA | -0.0679
CGGCGGGA | 0.275
AAGGAATA | -0.116
CACGCCCA | -0.105
AGAGGAGG | -0.109
GCATGTCA | -0.073

Sequence | PBM E-score
GCTTCAAC | -0.173
CGTCGAAA | -0.0197
CCCTCCGG | 0.208
GGCCGAAC | 0.313
CCAAAACC | 0.0531
GTCAACAA | -0.0581
AGCCAGCC | -0.123
AAATAGTA | -0.0686
ACTGTCTG | -0.0825
CTATCGAG | -0.194
CCGTACTC | 0.00399
GGTCACCA | -0.165
GCCGCCTA | -0.194
AGTTATCG | 0.0187
CGTGGGGC | -0.121
AAGCTAAT | -0.0799
ACCAACAT | -0.0973
CTGTGTAC | -0.102
CCAGCGAA | -0.0403
CAGGTGAA | -0.225
CAGATCCA | 0.0283
ACTGTAAA | -0.0512
AAACCAAA | -0.0346
ATGGGTAG | -0.0557
CATAAGAC | 0.0362

Sequence | PBM E-score
TGACCGAA | 0.186
ACCCGGAG | 0.373
GCCGACAC | 0.334
GAGGATTA | -0.137
GAACTTGC | 0.0628
CTTCGATA | -0.0771
GGCAGTAA | 0.153
GCAGCACA | -0.0912
AGTGTGCC | -0.016
CGGGGGTA | 0.249
CCCGAAAA | 0.428
AGGCTAAT | -0.0464
CACGCTTA | -0.139
AATGCTGT | -0.257
GCCTGCCA | -0.171
CATGTACC | 0.00657
ACTGACCG | 0.0627
CATCTTGA | -0.112
GGAGATAC | 0.151
CGTGACAA | 0.0349
CTTCCCGA | 0.438
ATCTTGAG | -0.202
GGGACGAA | 0.0281
CAGGGCGA | -0.16
AACGCATT | 0.0198

Sequence | PBM E-score
ATCGACTC | -0.187
AGTCATCA | -0.195
AGCCCAAC | -0.206
CGTCGCAG | -0.19
ACGTAACC | -0.0457
GGACATTA | 0.201
GGATGGTA | 0.192
CAATGATG | -0.0788
CCCGGTGA | 0.157
GATTTCAA | 0.0907
TGATAAAA | -0.0907
ATGATTAG | -0.0462
ATAGGACG | -0.122
AGCCACCT | -0.245
GGCTACCA | -0.127
CGTTACGA | 0.108
GCATGCGA | -0.0513
GCCGTGAC | 0.117
GGTTCTGA | -0.0424
